Test results reported in the supplement of paper PMC10126150.
Sequences with one replicate were seen in a single cluster, so their values are uncertain.

Test system: ATP
Test: switch fluorescence ratio, 500 uM ATP over buffer (Cy3 cluster intensity, sum of 5 cycles each) (fold (ratio)); higher = stronger signal-on switching upon ATP binding; sequences stand for … in TCGTCGGCAGCGTCAGATGTGTATAAGAGACAGTTTTTTTTTTTTTTTTTTTTTTTTT…TC
Details: aptamer strand: ATP DNA aptamer (quencher-CACCTGGGGGAGTATTGCGGAGGAAGG + anchor), 100 nM annealed; ATP concentration: 500 uM; one replicate
Outline: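 Clusters with intensities outside 100-1000 RFU were excluded. The remaining Cy3-labelled switching-strand clusters on a modified Illumina MiSeq flow-cell had been annealed to 100 nM quencher-labelled ATP aptamer and imaged in selection buffer, then after 15 min with 500 uM ATP at 22 °C, for five cycles separated by NaOH stripping and re-annealing. The fluorescence ratio, averaged per switch-domain sequence, is each cluster's summed target-cycle Cy3 intensity over its summed buffer-cycle Cy3 intensity.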
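Further: ATP exposure 15 min at 22 °C before imaging.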

## AAAATTTTCT
  switch fluorescence ratio: 1.03

## TAGGGGCCGG
  switch fluorescence ratio: 0.998

## GCTCCTTAAT
  switch fluorescence ratio: 1.19

## GACGTTGTCT
  switch fluorescence ratio: 0.967

## GACGCTCGCC
  switch fluorescence ratio: 1.86

## CCTTTGAATC
  switch fluorescence ratio: 1.32

## ACTTTTGTAC
  switch fluorescence ratio: 1.04

## ATTCGTGTC
  switch fluorescence ratio: 0.97

## ACTATTCGAC
  switch fluorescence ratio: 1.04

## CTCGAAACGG
  switch fluorescence ratio: 0.965

## ACTTACAGTT
  switch fluorescence ratio: 1.14

## GACGTCCTGT
  switch fluorescence ratio: 1.03

## CCAGTGTT
  switch fluorescence ratio: 1.02

## TAAAACGGTC
  switch fluorescence ratio: 1.11

## ATCCTGGGCC
  switch fluorescence ratio: 1.01

## TGACGGACTA
  switch fluorescence ratio: 1.59

## TCCTCATCGG
  switch fluorescence ratio: 1.08

## TAAGAGCGCG
  switch fluorescence ratio: 0.984

## CTAGAATTCT
  switch fluorescence ratio: 0.98

## AAAAGCGCG
  switch fluorescence ratio: 1.1

## ACCCCGTGGA
  switch fluorescence ratio: 1.03

## GTGATTAAAG
  switch fluorescence ratio: 0.988

## CGGGCAATTA
  switch fluorescence ratio: 1.76

## ATGTGGTACG
  switch fluorescence ratio: 1.02

## AGCCTTGAGG
  switch fluorescence ratio: 1.01

## TGGCACACGA
  switch fluorescence ratio: 1.04

## ACTACGGGTC
  switch fluorescence ratio: 1.13

## ATACCAGCGC
  switch fluorescence ratio: 0.996

## GAGTGGCCTC
  switch fluorescence ratio: 0.956

## AGTTGCAGTG
  switch fluorescence ratio: 0.99

## GACCTGCTAG
  switch fluorescence ratio: 1.04

## CGCCACGGGC
  switch fluorescence ratio: 1.04

## CTTTGGAAGG
  switch fluorescence ratio: 0.973

## TCCGACAGAT
  switch fluorescence ratio: 2.49

## GGCAGACGGC
  switch fluorescence ratio: 0.999

## CAAATTAATC
  switch fluorescence ratio: 0.966

## CTTACGTTTT
  switch fluorescence ratio: 0.979

## CTCGTCTCGT
  switch fluorescence ratio: 0.974

## TAGCTGTT
  switch fluorescence ratio: 0.981

## GGGGGTTGCC
  switch fluorescence ratio: 1.02

## ATTTTAATAC
  switch fluorescence ratio: 1.18

## CATCGGACAG
  switch fluorescence ratio: 1.06

## AATAGGGATG
  switch fluorescence ratio: 1.04

## ACAGTTGAC
  switch fluorescence ratio: 1.03

## TTCTCTGCTG
  switch fluorescence ratio: 1.18

## GTGGTCCGGT
  switch fluorescence ratio: 0.988

## CCGGCAAATA
  switch fluorescence ratio: 1.53

## AATTGCTTGG
  switch fluorescence ratio: 1.02

## TTATTCCGTT
  switch fluorescence ratio: 0.976

## ATGGAAGTGT
  switch fluorescence ratio: 1.01

## TAGTAATAAG
  switch fluorescence ratio: 0.962

## CGAGGCTATC
  switch fluorescence ratio: 3.58

## CGTTTGCGGT
  switch fluorescence ratio: 0.992

## GGACGCATGA
  switch fluorescence ratio: 1.6

## AATGCTCAGC
  switch fluorescence ratio: 1.07

## GTAGATGCCC
  switch fluorescence ratio: 0.977

## GGAAAGTCGG
  switch fluorescence ratio: 1.02

## AAATCATGCC
  switch fluorescence ratio: 1.04

## CCGGTAGATT
  switch fluorescence ratio: 1.06

## TAGCAAGGGC
  switch fluorescence ratio: 1.26

## ATTGGTTCAG
  switch fluorescence ratio: 1.01

## TGAGCAGTTA
  switch fluorescence ratio: 1.02

## TCGGTTGTTT
  switch fluorescence ratio: 1.04

## GTAAAAGACT
  switch fluorescence ratio: 1

## GGAACTGGCT
  switch fluorescence ratio: 1.01

## TTTTCCTGTG
  switch fluorescence ratio: 1.01

## CGTATCCATA
  switch fluorescence ratio: 1.01

## TAGGCCGACC
  switch fluorescence ratio: 1.07

## GGTGAATAGA
  switch fluorescence ratio: 1.01

## CTGACTTGAC
  switch fluorescence ratio: 1.08

## AAGCTTGGGA
  switch fluorescence ratio: 1.03

## TAGATCGGCC
  switch fluorescence ratio: 1.05

## TTCATGATAG
  switch fluorescence ratio: 1.01

## GTCAAAGT
  switch fluorescence ratio: 0.995

## GAAACGTACG
  switch fluorescence ratio: 1.21

## AGCATCTGTA
  switch fluorescence ratio: 1.03

## AGAGCGTCTC
  switch fluorescence ratio: 1.05

## CGAATTGCAT
  switch fluorescence ratio: 1.01

## CAGGGGCCAC
  switch fluorescence ratio: 0.994

## TCTCACTAAC
  switch fluorescence ratio: 1.16

## ATGAGCTCCA
  switch fluorescence ratio: 1.02

## GCTTGGCAGC
  switch fluorescence ratio: 0.979

## GATTGTGCAT
  switch fluorescence ratio: 1.02

## TAGAAAAAGT
  switch fluorescence ratio: 0.986

## AACCTCTGAC
  switch fluorescence ratio: 1.78

## GAATGGCTCT
  switch fluorescence ratio: 0.983

## CAACTTGGTT
  switch fluorescence ratio: 0.995

## TGTGTATTAC
  switch fluorescence ratio: 0.984

## ATATAGTCCC
  switch fluorescence ratio: 1.1

## GATCGAGTAG
  switch fluorescence ratio: 0.993

## AATCTGGGTC
  switch fluorescence ratio: 0.975

## CATGCATAAG
  switch fluorescence ratio: 0.967

## TCTAGCAGAG
  switch fluorescence ratio: 1.01

## TTTAACGCG
  switch fluorescence ratio: 1.01

## CACGTGAACG
  switch fluorescence ratio: 0.978

## GTGAAGGG
  switch fluorescence ratio: 1.06

## CATGTAGGGA
  switch fluorescence ratio: 0.972

## ACGATAGTCT
  switch fluorescence ratio: 0.956

## CGGTCGTGCC
  switch fluorescence ratio: 0.962

## CTGAATCTAC
  switch fluorescence ratio: 1.15

## AGGTACTAAT
  switch fluorescence ratio: 1

## TAGCAGCTCA
  switch fluorescence ratio: 0.948

## GTATATGCGC
  switch fluorescence ratio: 0.934

## CAGATATAGG
  switch fluorescence ratio: 1.01

## CGGTCAGAT
  switch fluorescence ratio: 1

## TATGATAAGT
  switch fluorescence ratio: 0.945

## ACACATCCTG
  switch fluorescence ratio: 1.03

## GAGATCTTAG
  switch fluorescence ratio: 0.994

## CGGGCCCTG
  switch fluorescence ratio: 0.999

## CGATTTCCGG
  switch fluorescence ratio: 1.02

## AACTTTTAGG
  switch fluorescence ratio: 1.02

## TGTTAAGGAT
  switch fluorescence ratio: 0.945

## CCAGACCGTA
  switch fluorescence ratio: 1.03

## GACTGTACCG
  switch fluorescence ratio: 1.15

## TTCAATTCT
  switch fluorescence ratio: 1.06

## ACTGCCGG
  switch fluorescence ratio: 1.02

## GGGATGCCGG
  switch fluorescence ratio: 0.984

## AATCTTGCAG
  switch fluorescence ratio: 1.01

## TGAAGTCTAA
  switch fluorescence ratio: 0.976

## AGCTCATCCT
  switch fluorescence ratio: 1.02

## AGCGGCATTA
  switch fluorescence ratio: 1.04

## GTAATGTTTG
  switch fluorescence ratio: 1.01

## ACAGTCTAGT
  switch fluorescence ratio: 1.02

## CGAGAGCCCG
  switch fluorescence ratio: 0.94

## GCAATAGTCG
  switch fluorescence ratio: 3.37

## TGTTCTCGGT
  switch fluorescence ratio: 0.99

## ACGGATTAT
  switch fluorescence ratio: 1.04

## TAATACAGGT
  switch fluorescence ratio: 1.07

## ACGCGGCCTG
  switch fluorescence ratio: 1.06

## TCGGGTTGTC
  switch fluorescence ratio: 0.915

## ATTAAATGTT
  switch fluorescence ratio: 0.967

## TTCGCCTCTC
  switch fluorescence ratio: 1.25

## TTAGAAACTC
  switch fluorescence ratio: 1.03

## AGCGCGAGAG
  switch fluorescence ratio: 1.05

## AGCTTGATC
  switch fluorescence ratio: 0.984

## ATTAAACCGA
  switch fluorescence ratio: 1.3

## GCAGAATGTC
  switch fluorescence ratio: 0.978

## TAGGGGCTCA
  switch fluorescence ratio: 1.01

## GCTTCTATAT
  switch fluorescence ratio: 1.02

## AGGCACGATG
  switch fluorescence ratio: 0.97

## CCGTGGAGGT
  switch fluorescence ratio: 1.01

## CCGGAAGATA
  switch fluorescence ratio: 1.05

## CAGCTCTAAT
  switch fluorescence ratio: 0.96

## GCATTAATAG
  switch fluorescence ratio: 1.03

## TGAAGAAGCT
  switch fluorescence ratio: 1.14

## CGGACCTCTC
  switch fluorescence ratio: 1.03

## TAGATTAGTG
  switch fluorescence ratio: 0.977

## CGAGGATGAG
  switch fluorescence ratio: 0.976

## TAAATTCTAA
  switch fluorescence ratio: 1

## GTCCGGTGCC
  switch fluorescence ratio: 1.03

## TTTAAACACT
  switch fluorescence ratio: 1.04

## TTGCGCTGCG
  switch fluorescence ratio: 0.951

## ACATAATTCA
  switch fluorescence ratio: 1.03

## GATAATGAGA
  switch fluorescence ratio: 0.991

## CCTTAGGCCT
  switch fluorescence ratio: 1.04

## ATACAAAACT
  switch fluorescence ratio: 1.03

## CCCTGGATTT
  switch fluorescence ratio: 0.982

## GCGATTTTGG
  switch fluorescence ratio: 0.972

## ATCGGAAAGT
  switch fluorescence ratio: 1.03

## TCATGCGAAT
  switch fluorescence ratio: 1.04

## AGCAACTCCT
  switch fluorescence ratio: 2.13

## AGTGTGCGGG
  switch fluorescence ratio: 0.924

## ATTCCCAGCC
  switch fluorescence ratio: 1.06

## CAGAGCTT
  switch fluorescence ratio: 0.981

## TCTTGTTCAG
  switch fluorescence ratio: 0.986

## CAAGCATCTA
  switch fluorescence ratio: 0.972

## TTCCCGACCT
  switch fluorescence ratio: 1.24

## GGCCGTTAGG
  switch fluorescence ratio: 1.08

## CCTTCATCAT
  switch fluorescence ratio: 1.33

## AGTTGCTTA
  switch fluorescence ratio: 1.02

## TGTGTCCAGT
  switch fluorescence ratio: 0.956

## AGATTAGGTC
  switch fluorescence ratio: 1.03

## GTCATTAATA
  switch fluorescence ratio: 0.996

## GAAGGCTGCA
  switch fluorescence ratio: 1

## CACAGTATGA
  switch fluorescence ratio: 1.09

## TGTTAGGTAC
  switch fluorescence ratio: 1.07

## GAGTCTTAGA
  switch fluorescence ratio: 0.998

## ACGGTATATG
  switch fluorescence ratio: 1.15

## CTGGAACTAG
  switch fluorescence ratio: 1.02

## GCCTCCAGTC
  switch fluorescence ratio: 1.27

## GGGAAGGTCG
  switch fluorescence ratio: 0.978

## CAGAGTTAGG
  switch fluorescence ratio: 0.982

## AATTCCTTAG
  switch fluorescence ratio: 1.02

## GCAGTTATAC
  switch fluorescence ratio: 3.63

## GACTAGTGGG
  switch fluorescence ratio: 1.02

## TTAGCCTGGA
  switch fluorescence ratio: 0.98

## CCGTTGCTTC
  switch fluorescence ratio: 1.71

## GCGGCAGAGC
  switch fluorescence ratio: 0.971

## CAAAGTTCGT
  switch fluorescence ratio: 0.998

## GTAGATGGCG
  switch fluorescence ratio: 0.987

## TTATGAGTCC
  switch fluorescence ratio: 1.05

## ACTGTGTCAC
  switch fluorescence ratio: 1.05

## GAACCGCACT
  switch fluorescence ratio: 1.62

## ACAGCTGTCT
  switch fluorescence ratio: 0.999

## CTCGCGGGGA
  switch fluorescence ratio: 1.02

## GAAGTCGTCA
  switch fluorescence ratio: 1.01

## GGAATGACGC
  switch fluorescence ratio: 1

## CGTTCAAGGC
  switch fluorescence ratio: 1.28

## GGACATCGAA
  switch fluorescence ratio: 0.993

## CTGCGCCTAA
  switch fluorescence ratio: 1.16

## GGCCGGACCT
  switch fluorescence ratio: 1.11
